Data as given in the supplement of paper PMC4466236.
The full ranking holds about 33,000 sequences; the median of “E-score (dimensionless, -0.5 to 0.5)” is about -0.058, and the highest 2% start at about 0.35. The list shows a part of the results.

Tested on: MvaT
Test: PBM 8-mer E-score (mean of HK and ME arrays) (E-score (dimensionless, -0.5 to 0.5)); higher = stronger relative binding preference; most listed sequences are background and not binding sites
Experimental: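 Protein binding microarray: GST-tagged full-length MvaT (P. aeruginosa PAO1) bound to two universal double-stranded 60-mer arrays (ME and HK), each with a constant 25-mer primer and a variable 35-mer region covering all 8-mers. The 8-mer E-score (rank-based, range -0.5 to 0.5, >0.45 = specific binding) is the mean of the two arrays.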

Row | Sequence | PBM 8-mer E-score
1 | GTCAAGCA | -0.052
2 | CGGTCTCA | -0.162
3 | GTCCCTCA | -0.177
4 | ACAGTAAG | 0.107
5 | ATCTCCAA | 0.0232
6 | CCGGAAGC | -0.257
7 | TAAGTGGA | 0.0662
8 | AGTCGCTG | -0.0842
9 | ATTCAACC | 0.117
10 | GCTACAAC | 0.0964
11 | TAGCGGGA | -0.138
12 | TAACTGCA | 0.24
13 | CTACAATA | 0.244
14 | CGCTCGTA | -0.094
15 | AAGTGAGA | -0.034
16 | ATCATCAA | 0.0305
17 | ATTCTCTC | -0.0442
18 | TCGATGAA | -0.143
19 | CCGAGCAG | -0.247
20 | AACACCAG | 0.0698
21 | ATTAACCA | 0.211
22 | AACGAGGT | -0.0616

Row | Sequence | PBM 8-mer E-score
23 | GTGTTTTA | 0.259
24 | CCTCCGGA | -0.237
25 | TCAGCAGA | -0.00787
26 | AGTACACT | 0.155
27 | GTTCCGAA | -0.0947
28 | TAGGGGGA | -0.178
29 | AACTGGTA | 0.109
30 | TTTCAAAA | 0.232
31 | CCCCGATC | -0.2
32 | ACGAGGCT | -0.135
33 | CTAATGGA | -0.106
34 | CTATATTC | 0.204
35 | GGGCATGA | -0.171
36 | ACCTAACC | 0.0823
37 | CCAATCTC | -0.00864
38 | AAATCAAG | 0.171
39 | ACATGACA | -0.00327
40 | CCAAATAA | 0.204
41 | GTATCTTA | 0.194
42 | ATGGTATG | -0.168
43 | CCAGGTGA | -0.0789
44 | ACCGCTTC | -0.244

Row | Sequence | PBM 8-mer E-score
45 | AGGGGGAC | -0.284
46 | GAGACGAA | -0.109
47 | GCGTCTCC | -0.28
48 | CTTCGTTC | -0.18
49 | CGAGACCC | -0.121
50 | CGTGTTCC | -0.108
51 | ATACGGTA | 0.0899
52 | ATACCACA | 0.141
53 | GCGGTAGC | -0.198
54 | GAGTAGGC | -0.275
55 | CACCTGGC | -0.212
56 | AGGTGCCA | -0.202
57 | CTTGATGC | -0.171
58 | AGATGGAG | -0.037
59 | ATAATGAT | 0.275
60 | GAAAAAAC | -0.0442
61 | CTTTCTCA | -0.0126
62 | AAGAACTT | 0.206
63 | ACCCAACC | -0.0143
64 | TCGGCAGA | -0.145
65 | GACTGTAA | 0.117
66 | GGAGCCCA | -0.203

Row | Sequence | PBM 8-mer E-score
67 | AGAGCTGG | -0.147
68 | GGGGCCAA | -0.225
69 | GTAGTTAA | 0.283
70 | ACTTAGGA | 0.0667
71 | GCCTTTGA | -0.218
72 | CAGACGCG | -0.17
73 | AGTAGATG | 0.117
74 | CAGGCCAC | -0.199
75 | AGCTCCGA | -0.199
76 | CGGGCCCG | -0.215
77 | CCGCTAAG | -0.0317
78 | AGCTTGGC | -0.246
79 | ACTCATTG | 0.13
80 | AGCACGCG | -0.00877
81 | ACCGGGAA | -0.109
82 | GGGAGTAA | -0.0232
83 | CTATTCAA | 0.153
84 | AGGGGTAC | -0.215
85 | GTGACACA | 0.0291
86 | CTAGGGCC | -0.0588
87 | CCGATCAC | -0.23
88 | AGGGCCAT | -0.241

Row | Sequence | PBM 8-mer E-score
89 | AGCCCTGC | -0.307
90 | GTTCGTCA | -0.00827
91 | CGTGGGGA | -0.179
92 | TAAACCGA | 0.0847
93 | AGCCATGG | -0.159
94 | GCAGGTGA | -0.0889
95 | CTCATGTC | -0.187
96 | AACGGCTT | -0.0621
97 | CAGATGAG | -0.0435
98 | TACGGCTA | -0.116
99 | ATCGGTTC | -0.113
100 | AGCCTTCC | -0.326
101 | CAATATGA | 0.244
102 | CACCGCCG | -0.084
103 | AATCTCTA | 0.083
104 | CGTTGCAA | 0.00647
105 | ATACCCTA | 0.153
106 | CTGTATCC | -0.0396
107 | CAAGCTCG | -0.274
108 | CCGTTGGC | -0.32
109 | ATAAACGC | 0.181
110 | GCTAAGAC | -0.179
